These are yes or no findings as the source states them, for the method shown. For some of these results: Binding seen in cells or lysates may run through a third protein. Some entries that bind do so weakly or less than the wild type. For some of these results: Where a sequence is shown, tags or fusion partners need not be part of it. One block for each molecule: values may come before it.
What was measured:
[1] = target: T1, TRIP6 (thyroid hormone receptor-interacting protein 6), endogenous (human (endogenous in SKOV-3, HEK293T, U373-MG)) (UniProt Q15654); assay: co-IP; endogenous TRIP6 immunoprecipitated with anti-TRIP6 mouse monoclonal antibody from HEK293T expressing FLAG-TRAF6; LPA time course; immunoblot for endogenous NF-κB p65
T1 sequence: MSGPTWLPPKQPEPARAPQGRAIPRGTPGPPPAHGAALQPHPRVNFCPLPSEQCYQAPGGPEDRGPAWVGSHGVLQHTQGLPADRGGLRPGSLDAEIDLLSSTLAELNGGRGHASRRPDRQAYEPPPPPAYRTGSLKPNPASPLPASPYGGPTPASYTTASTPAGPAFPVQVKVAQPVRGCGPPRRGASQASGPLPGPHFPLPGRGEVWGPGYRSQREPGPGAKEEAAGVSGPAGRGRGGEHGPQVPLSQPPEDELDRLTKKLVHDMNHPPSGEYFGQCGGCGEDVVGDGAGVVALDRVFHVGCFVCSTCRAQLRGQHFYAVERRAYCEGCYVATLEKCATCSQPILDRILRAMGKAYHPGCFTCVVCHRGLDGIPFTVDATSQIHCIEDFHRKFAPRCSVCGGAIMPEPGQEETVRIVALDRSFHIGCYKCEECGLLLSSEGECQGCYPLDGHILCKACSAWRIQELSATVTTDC

Amino acid sequences for entries named in this document (tags omitted).
UniProt Q04206: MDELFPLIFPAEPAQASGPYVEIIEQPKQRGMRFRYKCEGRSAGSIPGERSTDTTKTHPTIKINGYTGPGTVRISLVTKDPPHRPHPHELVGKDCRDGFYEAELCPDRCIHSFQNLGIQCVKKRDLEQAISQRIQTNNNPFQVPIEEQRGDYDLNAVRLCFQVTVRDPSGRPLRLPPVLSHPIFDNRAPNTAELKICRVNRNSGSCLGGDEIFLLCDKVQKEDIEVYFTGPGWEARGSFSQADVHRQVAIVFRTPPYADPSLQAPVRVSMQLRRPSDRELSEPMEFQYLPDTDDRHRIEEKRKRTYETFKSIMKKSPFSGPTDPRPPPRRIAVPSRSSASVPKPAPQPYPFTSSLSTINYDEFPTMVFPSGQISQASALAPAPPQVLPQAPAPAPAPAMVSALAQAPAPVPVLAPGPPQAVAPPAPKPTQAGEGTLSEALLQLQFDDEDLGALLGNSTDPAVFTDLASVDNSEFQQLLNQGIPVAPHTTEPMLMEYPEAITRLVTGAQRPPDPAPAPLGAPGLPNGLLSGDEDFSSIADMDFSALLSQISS

[2] = target: T2, FLAG-TRIP6 (UniProt Q15654); assay: condition: only with overexpressed ligase-defective EGFP-C70A-TRAF6; co-IP; as a17, with ligase-defective EGFP-C70A-TRAF6 co-expressed
T2 sequence: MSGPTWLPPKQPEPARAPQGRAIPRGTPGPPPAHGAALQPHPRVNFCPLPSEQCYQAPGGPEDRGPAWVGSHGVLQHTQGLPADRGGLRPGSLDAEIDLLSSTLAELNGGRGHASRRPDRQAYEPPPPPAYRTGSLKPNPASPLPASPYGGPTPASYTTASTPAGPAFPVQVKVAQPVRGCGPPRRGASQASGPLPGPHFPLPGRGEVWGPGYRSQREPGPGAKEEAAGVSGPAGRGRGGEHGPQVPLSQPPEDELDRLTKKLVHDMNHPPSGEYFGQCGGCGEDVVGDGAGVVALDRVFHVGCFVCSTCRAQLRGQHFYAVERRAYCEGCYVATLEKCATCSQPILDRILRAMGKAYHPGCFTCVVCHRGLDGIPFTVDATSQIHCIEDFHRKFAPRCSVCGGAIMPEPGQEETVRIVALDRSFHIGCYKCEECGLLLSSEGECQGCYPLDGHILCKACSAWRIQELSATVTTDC

[3] = target: T2, FLAG-TRIP6; assay: co-IP; FLAG-TRIP6 immunoprecipitated from cytosolic and nuclear fractions of HEK293T expressing HA-K63-ubiquitin and EGFP or EGFP-TRAF6; starved 6 h, LPA 1 h; immunoblot for endogenous NF-κB p65
[4] = target: T2, FLAG-TRIP6; assay: co-IP; FLAG-TRIP6 constructs co-expressed with EGFP-tagged TRAF6 domains in HEK293T; anti-FLAG M2 immunoprecipitation; anti-GFP immunoblot
[5] = target: T3, FLAG-E52A-TRIP6 (UniProt Q15654); assay: as above
T3 sequence: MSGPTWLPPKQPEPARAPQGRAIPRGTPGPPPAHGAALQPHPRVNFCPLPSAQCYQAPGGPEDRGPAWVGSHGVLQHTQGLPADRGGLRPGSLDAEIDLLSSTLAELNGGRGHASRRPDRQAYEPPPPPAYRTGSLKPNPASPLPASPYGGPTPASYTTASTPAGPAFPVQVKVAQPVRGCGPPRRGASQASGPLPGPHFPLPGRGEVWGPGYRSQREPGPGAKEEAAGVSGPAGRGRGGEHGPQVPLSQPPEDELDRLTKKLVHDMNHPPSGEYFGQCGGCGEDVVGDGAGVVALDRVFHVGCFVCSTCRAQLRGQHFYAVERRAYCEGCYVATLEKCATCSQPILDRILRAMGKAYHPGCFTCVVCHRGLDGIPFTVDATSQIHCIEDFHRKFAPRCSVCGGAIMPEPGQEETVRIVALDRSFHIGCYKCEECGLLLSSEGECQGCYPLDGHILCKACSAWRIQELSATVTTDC

[6] = target: T4, FLAG-A20 (UniProt P21580); assay: pull-down; FLAG-A20 immunoprecipitated on anti-FLAG M2 agarose from LPA-treated HEK293T (RIPA buffer); beads incubated with 0.1 μg purified recombinant TRAF6 without or with 0.1 μg purified recombinant TRIP6, 4 °C, 3 h; washed four times; immunoblot; both purified
T4 sequence: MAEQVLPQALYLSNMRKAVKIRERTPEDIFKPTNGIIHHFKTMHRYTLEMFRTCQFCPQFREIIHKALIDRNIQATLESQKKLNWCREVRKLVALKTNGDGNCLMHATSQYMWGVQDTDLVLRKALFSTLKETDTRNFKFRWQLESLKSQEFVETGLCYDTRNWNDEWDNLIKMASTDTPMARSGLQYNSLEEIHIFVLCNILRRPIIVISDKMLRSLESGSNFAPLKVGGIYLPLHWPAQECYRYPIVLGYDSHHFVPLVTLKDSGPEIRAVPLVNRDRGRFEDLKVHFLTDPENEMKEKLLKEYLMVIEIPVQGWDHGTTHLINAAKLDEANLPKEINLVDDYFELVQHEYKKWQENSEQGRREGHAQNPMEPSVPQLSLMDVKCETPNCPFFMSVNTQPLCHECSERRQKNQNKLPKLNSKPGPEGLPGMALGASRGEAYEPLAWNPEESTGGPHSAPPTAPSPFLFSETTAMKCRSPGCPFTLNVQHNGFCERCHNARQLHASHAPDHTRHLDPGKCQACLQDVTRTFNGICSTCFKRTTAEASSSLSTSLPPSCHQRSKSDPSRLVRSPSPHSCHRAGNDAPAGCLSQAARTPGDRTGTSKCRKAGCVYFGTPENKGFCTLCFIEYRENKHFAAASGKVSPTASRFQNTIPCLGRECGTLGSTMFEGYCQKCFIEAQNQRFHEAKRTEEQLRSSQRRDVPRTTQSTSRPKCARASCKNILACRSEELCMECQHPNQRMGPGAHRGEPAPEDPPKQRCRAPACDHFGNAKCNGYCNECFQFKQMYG

[7] = target: T5, GST-TRIP6 (UniProt Q15654); assay: pull-down; purified recombinant TRAF6 incubated with GST, GST-TRIP6 or GST-TRIP6 fragments, 4 °C, 3 h; anti-TRAF6 immunoblot; both purified
T5 sequence: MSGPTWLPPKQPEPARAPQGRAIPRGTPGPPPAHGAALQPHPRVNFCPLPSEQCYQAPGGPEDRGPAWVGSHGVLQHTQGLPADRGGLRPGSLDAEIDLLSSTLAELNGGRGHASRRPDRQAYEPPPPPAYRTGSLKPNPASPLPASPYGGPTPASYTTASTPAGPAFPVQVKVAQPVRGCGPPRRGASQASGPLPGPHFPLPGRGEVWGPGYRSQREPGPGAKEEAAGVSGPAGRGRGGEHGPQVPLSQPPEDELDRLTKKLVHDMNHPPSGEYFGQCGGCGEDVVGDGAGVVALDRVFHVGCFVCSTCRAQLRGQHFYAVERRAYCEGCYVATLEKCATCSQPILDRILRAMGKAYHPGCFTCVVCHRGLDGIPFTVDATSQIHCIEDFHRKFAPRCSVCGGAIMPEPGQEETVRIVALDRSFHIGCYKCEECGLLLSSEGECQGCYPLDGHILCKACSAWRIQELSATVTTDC

[8] = target: T6, GST-TRIP6 mutant containing LIM domains 1 to 3 (residues 279–476) (UniProt Q15654); assay: as above
T6 sequence: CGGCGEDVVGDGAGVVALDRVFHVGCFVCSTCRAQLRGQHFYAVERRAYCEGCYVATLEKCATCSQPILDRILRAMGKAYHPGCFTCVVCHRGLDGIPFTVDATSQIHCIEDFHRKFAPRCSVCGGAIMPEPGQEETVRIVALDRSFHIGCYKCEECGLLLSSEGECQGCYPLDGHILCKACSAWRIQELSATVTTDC

[9] = target: T7, GST-TRIP6 mutant containing LIM3 domain (residues 398–476) (UniProt Q15654); assay: as above
T7 sequence: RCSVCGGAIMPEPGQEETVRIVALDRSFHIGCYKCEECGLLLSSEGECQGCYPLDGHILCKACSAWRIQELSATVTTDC

[10] = target: T8, GST-TRIP6 mutant containing LIM domains 2 to 3 (residues 340–476) (UniProt Q15654); assay: as above
T8 sequence: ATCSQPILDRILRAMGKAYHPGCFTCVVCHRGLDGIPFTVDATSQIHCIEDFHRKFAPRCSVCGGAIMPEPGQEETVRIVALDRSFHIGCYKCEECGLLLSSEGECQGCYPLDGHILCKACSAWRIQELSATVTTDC

binding [1]: binds
binding [2]: no binding
binding [3]: binds
Molecule: NF-κB p65, endogenous (HEK293T) (from UniProt Q04206 1-551)

binding [4]: binds
binding [5]: no binding
B1: GST-CT mutant containing residues 239–530 of TRAF6 (domain or fragment, UniProt P70196 239-530, looked up)
chain: PIPCTFSVFGCHEKMQRNHLARHLQENTQLHMRLLAQAVHNVNLALRPCDAASPSRGCRPEDPNYEETIKQLESRLVRQDHQIRELTAKMETQSMYVGELKRTIRTLEDKVAEMEAQQCNGIYIWKIGNFGMHLKSQEEERPVVIHSPGFYTGRPGYKLCMRLHLQLPTAQRCANYISLFVHTMQGEYDSHLPWPFQGTIRLTILDQSEALIRQNHEEVMDAKPELLAFQRPTIPRNPKGFGYVTFMHLEALRQGTFIKDDTLLVRCEVSTRFDMGGLRKEGFQPRSTDAGV
notes: TRAF6 carboxyl-terminal domain, residues 239-530; also called TRAF6-CT domain; carboxyl-terminal domain; source: purified recombinant GST-tagged protein (pGEX-6P3)

binding [6]: binds
binding [7]: binds
binding [8]: binds
binding [9]: no binding
binding [10]: binds
B2: purified recombinant TRAF6 (protein, UniProt P70196 1-530)
chain: MSLLNCENSCGSSQSSSDCCAAMAASCSAAVKDDSVSGSASTGNLSSSFMEEIQGYDVEFDPPLESKYECPICLMALREAVQTPCGHRFCKACIIKSIRDAGHKCPVDNEILLENQLFPDNFAKREILSLTVKCPNKGCLQKMELRHLEDHQVHCEFALVNCPQCQRPFQKCQVNTHIIEDCPRRQVSCVNCAVSMAYEEKEIHDQSCPLANIICEYCGTILIREQMPNHYDLDCPTAPIPCTFSVFGCHEKMQRNHLARHLQENTQLHMRLLAQAVHNVNLALRPCDAASPSRGCRPEDPNYEETIKQLESRLVRQDHQIRELTAKMETQSMYVGELKRTIRTLEDKVAEMEAQQCNGIYIWKIGNFGMHLKSQEEERPVVIHSPGFYTGRPGYKLCMRLHLQLPTAQRCANYISLFVHTMQGEYDSHLPWPFQGTIRLTILDQSEALIRQNHEEVMDAKPELLAFQRPTIPRNPKGFGYVTFMHLEALRQGTFIKDDTLLVRCEVSTRFDMGGLRKEGFQPRSTDAGV

— article PMC4850058, “TRIP6 antagonizes the recruitment of A20 and CYLD to TRAF6 to promote the LPA2 receptor-mediated TRAF6 activation” (Cell Discovery, 2016)
